From US20160340422A1
Each block holds one binder with its values, some of them ahead of it.

Target: B7 molecule on Raji cells
Experiment: flow cytometry on Raji cells, sample at 0.5 nM, FITC anti-mouse IgG

Mean fluorescence intensity (MFI): 3 MFI
B1: Bifunctional fusion protein E (protein)
heavy: QVQLKESGPGLVQPSQTLSLTCTVSGFSLTNYYVHWVRQPPGKGLEWMGGVWNDGDTSYNSVLRSRLSITRDTSKSQVLLKMSSLQTEDTATYYCAREGREGFVGYYVMDAWGPGASVTVSSAKTTAPSVYPLAPVCGDTTGSSVTLGCLVKGYFPEPVTLTWNSGSLSSGVHTFPAVLQSDLYTLSSSVTVTSSTWPSQSITCNVAHPASSTKVDKKIEPRGPTIKPCPPCKCPAPNLLGGPSVFIFPPKIKDVLMISLSPIVTCVVVDVSEDDPDVQISWFVNNVEVHTAQTQTHREDYNSTLRVVSALPIQHQDWMSGKEFKCKVNNKDLPAPIERTISKPKGSVRAPQVYVLPPPEEEMTKKQVTLTCMVTDFMPEDIYVEWTNNGKTELNYKNTEPVLDSDGSYFMYSKLRVEKKNWVERNSYSCSVVHEGLHNHHTTKSFSRTPGK
light: DIQMTQSPSFLSASVGERVTLSCKASQNINKYLDWFQQKLGEAPKLLIYNADNLHTGIPSRFSGSGSFSDFILTISSLQPEDDATYFCLQRESWPYTFGAGTKLELKRADAAPTVSIFPPSSEQLTSGGASVVCFLNNFYPKDINVKWKIDGSERQNGVLNSWTDQDSKDSTYSMSSTLTLTKDEYERHNSYTCEATHKTSTSPIVKSFNRNECGGGGSGGGGSGGGGSGGGGSGGG[about 120 residues skipped]

Mean fluorescence intensity (MFI): 9 MFI
B2: Bifunctional fusion protein D (protein)
heavy: QVQLKESGPGLVQPSQTLSLTCTVSGFSLTNYYVHWVRQPPGKGLEWMGGVWNDGDTSYNSVLRSRLSITRDTSKSQVLLKMSSLQTEDTATYYCAREGREGFVGYYVMDAWGPGASVTVSSAKTTAPSVYPLAPVCGDTTGSSVTLGCLVKGYFPEPVTLTWNSGSLSSGVHTFPAVLQSDLYTLSSSVTVTSSTWPSQSITCNVAHPASSTKVDKKIEPRGPTIKPCPPCKCPAPNLLGGPSVFIFPPKIKDVLMISLSPIVTCVVVDVSEDDPDVQISWFVNNVEVHTAQTQTHREDYNSTLRVVSALPIQHQDWMSGKEFKCKVNNKDLPAPIERTISKPKGSVRAPQVYVLPPPEEEMTKKQVTLTCMVTDFMPEDIYVEWTNNGKTELNYKNTEPVLDSDGSYFMYSKLRVEKKNWVERNSYSCSVVHEGLHNHHTTKSFSRTPGKGGGGSGGGGSGGGGSGGGGSGGG[about 120 residues skipped]
light: DIQMTQSPSFLSASVGERVTLSCKASQNINKYLDWFQQKLGEAPKLLIYNADNLHTGIPSRFSGSGSFSDFILTISSLQPEDDATYFCLQRESWPYTFGAGTKLELKRADAAPTVSIFPPSSEQLTSGGASVVCFLNNFYPKDINVKWKIDGSERQNGVLNSWTDQDSKDSTYSMSSTLTLTKDEYERHNSYTCEATHKTSTSPIVKSFNRNEC
